From PubChem BioAssay AID488969 (Vanderbilt High Throughput Screening Facility, 2010) come the findings set out here.

Molecules are shown by their SMILES. The full ranking holds about 110,000 compounds; the median of “z-score” is about -0.1, and the highest 2% start at about 2. Some of the results follow. The source made the active and inactive calls.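 Rule for the calls: active = z-score in the third read window above 3 or below -3; inactive = the rest.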

For this experiment, the target named is Metabotropic glutamate receptor 8 (Rattus norvegicus) (UniProt P70579). Nature of the experiment: rat mGluR8 modulators via GIRK flux, primary screen, cell-based, thallium flux, HTS (AID 488969). The following applies: HEK293 rat mGluR8, GIRK (G protein-gated inwardly rectifying potassium channel) thallium flux, FluoZin2; at 10 µM; stronger effect = higher value; submaximal glutamate (EC20) added with thallium.
Sequence of UniProt P70579 (P70579 whole entry, looked up): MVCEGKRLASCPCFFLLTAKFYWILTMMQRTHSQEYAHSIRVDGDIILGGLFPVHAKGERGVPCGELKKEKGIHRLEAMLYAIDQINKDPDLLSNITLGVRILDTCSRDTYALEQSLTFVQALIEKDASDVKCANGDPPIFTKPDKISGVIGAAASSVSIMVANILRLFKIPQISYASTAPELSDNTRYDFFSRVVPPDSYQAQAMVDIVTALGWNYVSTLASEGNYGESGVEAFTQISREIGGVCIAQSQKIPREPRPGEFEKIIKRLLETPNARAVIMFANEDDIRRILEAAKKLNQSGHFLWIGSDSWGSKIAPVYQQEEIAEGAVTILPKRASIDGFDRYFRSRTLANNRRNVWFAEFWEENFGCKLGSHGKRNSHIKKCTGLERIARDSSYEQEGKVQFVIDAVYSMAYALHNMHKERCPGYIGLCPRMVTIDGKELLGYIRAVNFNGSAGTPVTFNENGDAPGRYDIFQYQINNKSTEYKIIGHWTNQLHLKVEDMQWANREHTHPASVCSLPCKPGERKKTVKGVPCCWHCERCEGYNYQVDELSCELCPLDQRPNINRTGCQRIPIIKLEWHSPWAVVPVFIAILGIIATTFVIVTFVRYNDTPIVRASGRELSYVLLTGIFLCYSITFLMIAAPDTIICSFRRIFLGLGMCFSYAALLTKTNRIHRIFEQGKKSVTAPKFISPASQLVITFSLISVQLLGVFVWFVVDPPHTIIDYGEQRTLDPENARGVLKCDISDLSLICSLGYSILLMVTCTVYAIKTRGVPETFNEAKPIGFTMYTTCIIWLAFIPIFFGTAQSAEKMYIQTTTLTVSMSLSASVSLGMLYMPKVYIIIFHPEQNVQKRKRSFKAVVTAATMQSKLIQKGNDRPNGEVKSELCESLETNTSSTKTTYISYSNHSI
Compound `CCCCC(=O)Nc1ccc(C(=O)OC2CCCCC2)cc1` gave a z-score of 1.36.

Regarding `COC(=O)c1ccc(Cl)c(NC(=O)NC23CC4CC(CC(C4)C2)C3)c1`, the z-score was found to be 0.74. In turn, `CCN(CC)S(=O)(=O)c1cccc(NC(=O)COc2ccc(Cl)cc2Br)c1` came in with a z-score of 0.628. `COc1cc(OC)c(-c2cc(C(=O)O)ccc2OC)c(OC)c1` had a z-score of -0.305. Compound `O=C(c1ccccc1)n1ccn(-c2ccccc2)c1=S` registered a z-score of -1.09. Next, `Cc1ccc(SCC(=O)c2c(C)[nH]c3ccccc23)cc1`: -0.725. Take `C=CCn1c(SCC(=O)NCCc2ccccc2)nnc1C(C)NC(=O)c1cccs1` (configuration not stated): the z-score was 0.0814. `COc1ccccc1C(=O)Nc1ccc2c(c1)OCO2`: the z-score was 0.246. As for `CC(C)COP(=O)(c1ccc(N(C)C)cc1)C(O)c1ccncc1` (configuration not stated), the z-score was -0.817. In turn, `Cc1ccc(S(=O)(=O)NCCc2ccccc2)cc1` returned a z-score of -0.206. For the compound `O=C(Nc1ccc(F)cc1)C(c1ccccc1)N1CCN(S(=O)(=O)c2c(F)cccc2F)CC1` (configuration not stated), the z-score was -0.642. As to `O/N=C\c1ccc(-c2ccccc2)o1`, the z-score is -0.209. The compound `Cc1ccc(/C=c2\sc3nc(-c4ccccc4Br)nn3c2=O)o1` showed a z-score of 0.427. Next, `O=C(COC(=O)C1(c2ccccc2)CC1)N1CCN(c2ccc(F)cc2)CC1`: -0.512; `CC1=C(Sc2nc3ccccc3[nH]2)C(=O)NC(C)(C)C1`: -0.124.

On to `Cc1cc(C)cc(NC(=O)CSc2cc(C(=O)c3nccn3C)c3ccccc3n2)c1`, for which the z-score is -0.0759. The value for `O=C(Oc1ccc(Cl)c2cccnc12)C12CC3CC(CC(C3)C1)C2` was -0.248; that for `Cc1ccccc1OC(C)C(=O)NC1CCCC1` (configuration not stated) was -0.0663. `N=C1/C(=C\c2ccc(SCc3ccco3)o2)C(=O)N=C2SC=NN12` displayed a z-score of -0.277. Next, `Oc1ccccc1N1CCN(c2ncccn2)CC1`: 0.0492; `CCC(=O)NCCc1cc2cc(C)c(C)cc2[nH]c1=O`: 0.381; `Cc1ccc(-c2nnn(CC(=O)N(Cc3cccs3)C(C(=O)NC3CCCC3)c3ccncc3)n2)cc1` (configuration not stated): -0.258. For the compound `O=C(O/N=C\c1ccc(N2CCCCC2)c([N+](=O)[O-])c1)c1cccc(Cl)c1`, the z-score is -0.494.

For the compound `O=C(c1cc(-c2ccc(F)cc2)on1)N1CCCC1`, the z-score was 0.605. Next, `CCOc1ccc(-c2nnc(-c3ccncc3)o2)cc1`: -0.243.

Turning to `CC1CN(c2oc(-c3ccco3)nc2C#N)CC(C)O1` (configuration not stated), the z-score is -0.251. The value for `CSc1ccccc1NC(=O)Nc1cccc(Cl)c1Cl` was 0.0344. In the case of `S=C(Nc1ccccc1)N1CCCCC1`, the z-score was -0.0174. In the case of `CC1CCCN(C(=O)CN2C(=O)c3ccccc3C2=O)C1` (configuration not stated), the z-score was -0.723.

As for `CCCCN=C(N)/C(C(=O)OCC)=C(\O)c1ccc(OC)cc1`, the z-score was 0.334. On to `CN(C(=S)NC1=CCS(=O)(=O)C1)C1CCCCC1`, for which the z-score was -0.225. The compound `CCn1nccc1C(=O)Nc1nc2ccccc2n1CCN1CCCCC1` displayed a z-score of -0.307. `Clc1ccc(-c2nnc(NCc3ccccc3)c3ccccc23)cc1` gave a z-score of -0.291. Consider `COC(=O)c1cccc(NC(=O)c2ccc3c(c2)C(=O)N(CC2CCCO2)C3=O)c1` (configuration not stated), for which the z-score was 0.0525. Consider `Cc1ccc(NCC(=O)Nc2cccc(S(=O)(=O)N(C)C)c2)c(Cl)c1`, for which the z-score is active: 4.79. Take `O=C(NCCCCc1ccccc1)c1ccc(Br)o1`: the z-score is -0.396. With `CCOC(=O)C(C)Sc1nnc(-c2ccccc2O)n1Cc1ccccc1` (configuration not stated), the z-score was -0.184.

`COc1ccc(-n2c(/C=C(\C)O)nc(=O)c3c(C)cc(C)nc32)cc1` showed a z-score of -1.79.

In turn, `CCc1oc(C(=O)O)cc1CN(CC)CC` gave a z-score of 0.229. The value for `O=C(NCCc1csc(-c2cccnc2)n1)c1ccccc1` was -0.261; that for `Cc1ccc2occ(/C=C/C(=O)O)c(=O)c2c1` was 0.113. Take `CCn1cc([N+](=O)[O-])c(C(=O)N2N=C(c3cccc4ccccc34)CC2c2ccccc2O)n1` (configuration not stated): the z-score is 0.0967. In turn, `CN1CCN(S(=O)(=O)c2ccc3c(c2)NC(=O)C2CCCN32)CC1` (configuration not stated) came in with a z-score of -0.228. The value for `CCNC(=S)N(Cc1ccc2c(c1)OCO2)C1CC(=O)N(c2ccc(F)cc2)C1=O` (configuration not stated) was -0.0723; that for `CCn1c2ccccc2c2nnc(SCC(=O)Nc3ccc4c(c3)OCO4)nc21` was 0.64. The value for `CC(=O)Cc1nsc(NC(=O)c2csc3c2CCCC3)n1` was 0.156; that for `COc1ccc(Cl)cc1C(=O)NCCN(C)C` was 0.157.

`COc1ccc(CC(=O)Nc2nc(-c3cccc([N+](=O)[O-])c3)cs2)cc1` gave a z-score of -0.0651. For the compound `Cc1nn(-c2ccccc2)c(C)c1/C=N/NC(=O)c1cc(C(C)(C)C)[nH]n1`, the z-score is -0.989. The value for `C=CCOc1ccc(C=Nc2ccc(Cl)cc2)c(O)c1` was -0.371; that for `CCCCc1c(O)nc(SCC(=O)NC(C)(C)C)n(-c2ccccc2C)c1=O` was 0.148. As for `COC(=O)CSc1nc2c(c(=O)[nH]c(=O)n2C)n1CCC(C)C`, the z-score was -0.127. `COc1ccc(C(NC(=O)/C=C/c2ccco2)c2ccc(OC)c(OC)c2)cc1OC`: the z-score is -0.0828. `COc1cccc(OCCCCSc2ncccn2)c1` yielded a z-score of -0.4. `COc1ccc(C(=O)Nc2cccc(-c3nnc(-c4ccco4)o3)c2)cc1` yielded a z-score of -0.857. Regarding `CN(Cc1nnc(SCC(=O)NCCc2ccccc2)n1C)S(=O)(=O)c1ccccc1`, the z-score is -0.226. On to `Cc1ccc(CNC(=O)C2CC(c3ccc([N+](=O)[O-])cc3)=NO2)cc1` (configuration not stated), for which the z-score amounted to 0.116. The value for `Cc1ccc(NC(=O)C2(c3ccccc3)CCOCC2)c([N+](=O)[O-])c1` was 0.0769; that for `COc1nc(NC(C)(C)C)nc(Oc2ccc(=O)n(-c3ccccc3)n2)n1` was -0.0471. Compound `CCN=C(NCC)SC1CC(=O)N(c2cccc(OCC)c2)C1=O` (configuration not stated) had a z-score of 0.256. The compound `O=C(Cc1cccs1)NNC(=S)NCc1ccc(Cl)cc1` registered a z-score of 0.477. Regarding `CCC(C(=O)NCc1ccccc1OC)n1nc(C)n2c(cc3occc32)c1=O` (configuration not stated), the z-score is -0.272. `CC(C)[C@H](NC(=O)c1ccccc1)C(=O)N1CCc2ccccc21` registered a z-score of -0.0295. `Cc1ccc(C2Nc3ccc4ccccc4c3C3=C2C(=O)CC(C)(C)C3)o1` (configuration not stated) gave a z-score of 0.339. In the case of `Cc1cc(SCC(=O)c2ccccc2)nc(C)n1`, the z-score was found to be 0.11. Next, `CCCCC(=O)Nc1nnc(SCC(=O)NC2CCCC2)s1`: -0.859.

As to `COC(=O)c1sc2nc(CN3CCN(c4cccc(C(F)(F)F)c4)CC3)[nH]c(=O)c2c1C`, the z-score is -0.163. For the compound `COc1ccccc1C(=O)N/C(N)=N/c1nc2ccccc2o1`, the z-score is -0.492. The value for `O=C(c1cccc(C(F)(F)F)c1)N1CCCC1` was -0.266. `CCOC(=O)c1c(C2COc3ccccc3O2)csc1NC(=O)c1ccco1` (configuration not stated): the z-score worked out at 0.786.

Compound `Cn1c(=O)c(=O)n(C)c2cc(S(=O)(=O)N3CCCCC3)ccc21` registered a z-score of 0.807. The compound `Nc1nnc(SCc2ccccc2)n1-c1ccccc1` showed a z-score of -0.294.
